The test deals with T1, XRCC4-WT (human, UniProt Q13426 1-336).
T1 construct: full-length (WT) protein; also called wild-type XRCC4; WT XRCC4; source: produced in bacteria, purified (procedures as described in Andres et al., 2012, 2007)
As to the kind of experiment: cross-linking; XRCC4 and XLF each at 20 μM, no DNA; 150 mM KCl, 20 HEPES pH 8, 1 mM EDTA, 2 mM DTT, 10% glycerol; 20 min at 4°C, then BS3, 1 hr at room temperature; reducing SDS-PAGE, Coomassie. As to conditions: both partners purified.

We go through one molecule from PMC5468090, “Mutational phospho-mimicry reveals a regulatory role for the XRCC4 and XLF C-terminal tails in modulating DNA bridging during classical non-homologous end joining” (eLife, 2017).

T1 sequence (Q13426 whole entry): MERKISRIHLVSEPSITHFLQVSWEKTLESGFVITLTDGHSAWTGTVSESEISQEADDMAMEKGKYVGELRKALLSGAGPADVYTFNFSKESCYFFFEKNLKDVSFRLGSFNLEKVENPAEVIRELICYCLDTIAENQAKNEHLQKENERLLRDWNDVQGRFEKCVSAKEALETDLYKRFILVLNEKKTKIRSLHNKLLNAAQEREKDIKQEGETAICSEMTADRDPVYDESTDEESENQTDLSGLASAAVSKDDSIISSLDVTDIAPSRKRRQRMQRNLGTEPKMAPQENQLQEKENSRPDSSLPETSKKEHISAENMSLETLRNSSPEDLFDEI

B1: XLF-L115A (natural protein)
chain: not shown
notes: XLF, human, […], with the point mutation L115A; source: produced in bacteria, purified (procedures as described in Andres et al., 2012, 2007)
As to B1, the binding result is reported as “binds”.
